24 sequences from the supplement of paper PMC10338343 can be followed below.

± gives the standard deviation. The entries are a selection whose mix differs from that of the whole data set.

The test deals with MIWI (PIWIL1) piRISC loaded with L1MC piRNA (30 nt). In words: pre-steady-state target cleavage rate (min^-1); MIWI and MILI are mouse PIWI proteins and EfPiwi is from a freshwater sponge; tags in brackets are library labels; higher = faster piRNA-guided slicing of the target. To be noted: guide: L1MC piRNA 5'p-UAACUAAAUACUAUGCAAGCUGUAGGUCCU; auxiliary factor: 500 nM mouse GTSF1. Put shortly: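 Cleave-'n-Seq: 1 nM active affinity-purified piRISC with one synthetic guide and 0.1 nM transcribed, DNA-blocked target RNA library were mixed, with or without 500 nM GTSF1 partner protein, in HEPES–potassium acetate buffer at 33 °C for 0–8 or 0–960 min. Uncleaved targets were sequenced and normalised to depth and to weakly complementary targets, three trials were pooled, and k3 was capped at 0.0001 min^-1. The pre-steady-state cleavage rate was fitted […].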
Turning to UCCUGGAACAGCUUGUCAUAGUAUUUAGUUA, the “pre-steady-state target cleavage rate” value is 0.306 ± 0.03.
On to UCCUCCUACAGCUUGCAAAGUAUAUAGUUA, for which the “pre-steady-state target cleavage rate” value was 0.53 ± 0.04.
Next, UGGACCUUCACCUUGCAUAGUAUUUAGUUA: 0.853 ± 0.033.
As for UCCUGGAUCAGCUUGCUUAGUAAUUAGUUA, the “pre-steady-state target cleavage rate” value came to 0.199 ± 0.022.
In the case of AGGACCUACAGCUUGGAUAGUUUUUAGUUA, the “pre-steady-state target cleavage rate” value turned out to be 0.388 ± 0.016.
UCCUGGAUGAGCAUGCAAAGUAUUUAGUUA: the “pre-steady-state target cleavage rate” value was determined as 0.283 ± 0.024.
For UCCUCCUACAGCUUGCAGAGUAUUUAGUUA, the “pre-steady-state target cleavage rate” value was 0.892 ± 0.063.
As to UCCUGCUACAGCUUGCAAAGUAUUUACUUA, the “pre-steady-state target cleavage rate” value is 0.311 ± 0.031.
Consider AGGACCUACAGCUUGCUUUGUAUUUAGUUA, for which the “pre-steady-state target cleavage rate” value is 0.264 ± 0.025.
Consider UCCUCCUACAGCUUGCAUGGUAUUUAGUUA, for which the “pre-steady-state target cleavage rate” value was determined as 1.66 ± 0.078.
Consider UCCUGCUACAGCUUACAUAGUAUUUAGUUA, for which the “pre-steady-state target cleavage rate” value turned out to be 0.619 ± 0.04.
UCCUGGAACUCGUUGCAUAGUAUUUAGUUA: the “pre-steady-state target cleavage rate” value turned out to be 0.185 ± 0.021.
Next, UGCACCUACAGCUAGCAUAGUAUUUAGUUA: 1.22 ± 0.097.
Next, UCGACCUACAGCUUGCAAAGAAUUUAGUUA: 0.303 ± 0.021; AGGACCUACAGCUUGCAUAGUAGUUAGUUA: 0.671 ± 0.061; UCCUCCUACAGCUUGGAUAGUAUUUACUUA: 0.2 ± 0.031.
Take AGGACCUAGACCUUGCAUAGUAUUUAGUUA: the “pre-steady-state target cleavage rate” value amounted to 1.01 ± 0.047.
Turning to UCCUGCUACAGCUUGCAAAGUAUUUAGAAA, the “pre-steady-state target cleavage rate” value amounted to 0.319 ± 0.043.
In the case of UCCUGGUACAGCUUGCAUAUUAUUUAGUUA it was 0.587 ± 0.08; in that of UCCUGGAACAGCUUGCAAAGUAAUUAGUUA, 0.545 ± 0.038; in that of UCCUGGAUCAGCUUGGCAUAGUAUUUAGUUA, 0.648 ± 0.14.
For UCCAGCUACAGCUUGCAUACUAUUUAGUUA, the “pre-steady-state target cleavage rate” value is 0.412 ± 0.021.
As for UGGACCUACAGCUUGCAUAGUAUUUGUUA, the “pre-steady-state target cleavage rate” value was found to be 0.341 ± 0.038.
Take UCCUGGAUCAGGUUGCAUAGAAUUUAGUUA: the “pre-steady-state target cleavage rate” value is 0.0793 ± 0.0096.
